Data: PubChem BioAssay AID2451 (National Center for Advancing Translational Sciences (NCATS), 2010)
The campaign covered roughly 290,000 compounds. About 2,100 (0.72%) were called active. The inconclusive results got no clear call from the source; some entries with a clear call stand among them for comparison. Calls follow the shape of the dose curve; as a rule, active = well fitted inhibition curve with a large enough effect; inconclusive = small, poorly fitted or top-dose-only effect, or effect the other way; inactive = flat fitted curve, though single readings scatter. Where the call is inconclusive, the potency comes from a doubtful curve fit.

biological target: Fructose-bisphosphate aldolase (Giardia intestinalis (strain ATCC 50803 / WB clone C6)) (UniProt A8B2U2); assay: qHTS Assay for Inhibitors of Fructose-1,6-bisphosphate Aldolase from Giardia Lamblia; conditions: purified Giardia FBPA; series mostly up to 59.6 µM; also: nearly all actives have a fitted effect of over 55% in size
How it was run: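 Giardia FBPA (40 nM reagent) was preincubated 10 min at RT with compound (up to 57.5 uM final), then substrate plus GAPDH/TPI/NAD/arsenate coupling system with diaphorase/resazurin was added; resorufin fluorescence (525/598 nm) was read after 20 min.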
Potency is read from the fitted curve at half-maximal effect; tags tell the direction and shape of the fitted curve.

Chain of UniProt A8B2U2 (A8B2U2 whole entry, looked up): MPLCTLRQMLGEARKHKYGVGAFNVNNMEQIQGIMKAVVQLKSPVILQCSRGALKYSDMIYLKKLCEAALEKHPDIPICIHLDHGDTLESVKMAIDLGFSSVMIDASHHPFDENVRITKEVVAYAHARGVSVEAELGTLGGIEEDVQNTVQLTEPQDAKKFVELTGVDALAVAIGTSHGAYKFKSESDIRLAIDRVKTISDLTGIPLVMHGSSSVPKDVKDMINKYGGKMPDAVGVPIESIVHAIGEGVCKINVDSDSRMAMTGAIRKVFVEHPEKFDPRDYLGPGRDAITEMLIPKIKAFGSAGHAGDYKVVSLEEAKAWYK

SMILES	Potency
O=C(Cn1nc(CNc2ccc(Cl)cc2)[n+]2c1CCCCC2)c1ccccc1	inactive
O=C1C=CC(=O)C2=C1C1c3ccccc3C2c2ccccc21	inconclusive: 12.6 µM [inhibitor, partial curve]
Cc1cccc(NC(=O)CSc2nnc(-c3cnccn3)n2Cc2ccco2)c1	inactive
CCOC(=O)c1cnc(-n2nc(C)cc2C)nc1NC	inconclusive: 11.2 µM [activator, partial curve]
Cc1cc(C)c(C(=O)Nc2ccc(Br)c(C(F)(F)F)c2)c(C)c1	inactive
COc1ccc(CNC(=O)Cc2cn(C)c3ccccc23)c(OC)c1	inconclusive: 31.6 µM [inhibitor, partial curve]
Cc1ccc(S(=O)(=O)Nc2cc(NC(=O)CN3CCOCC3)ccc2Cl)cc1	inconclusive: 44.6 µM [inhibitor, single point]
O=c1c2c3c(sc2ncn1Cc1ccc(F)cc1)CCC3	inactive
O=C1C(NS(=O)(=O)c2cccs2)=C(N2CCOCC2)C(=O)c2ccccc21	inconclusive: 3.54 µM [inhibitor, full curve, poor fit]
Cc1[nH]c(=S)n(CC2CCCO2)c1C (configuration not stated)	inconclusive: 12.6 µM [inhibitor, partial curve]
Cc1ccc2cc(-c3noc(C4CCCCC4)n3)c(=O)[nH]c2c1	inactive
O=[N+]([O-])c1cccnc1NCCc1c[nH]c2ccccc12	inactive
Cc1cc(C)cc(CC(Cc2nc3ccccc3[nH]2)c2nc3ccccc3[nH]2)c1 (configuration not stated)	inactive
C=CCSc1n[nH]c(-c2ccc(OCCC)cc2)n1	inconclusive: 15.8 µM [inhibitor, single point]
CC(=O)N1CCN(CC(O)COc2ccc(Br)cc2)CC1 (configuration not stated)	active: 28.2 µM
O=c1c2sccc2nc(SCc2cc(=O)n3cc(Br)ccc3n2)n1Cc1ccccn1	inconclusive: 17.7 µM [inhibitor, partial curve]
Cc1nc(-c2ccccc2)nc(Cl)c1Cl	inactive
CCCOc1ccc(C(=O)NNC(=S)NC(=O)c2cc(-c3ccccc3)nc3ccccc23)cc1	inconclusive: 17.7 µM [activator, single point]
CCOc1cc(NC(=S)NCC2CCCO2)c(OCC)cc1NC(=O)c1cccc(C)c1 (configuration not stated)	inactive
COc1ccc(OC)c(/C=N/NC2=NS(=O)(=O)c3ccccc32)c1	active: 15.8 µM
COc1ccc(-c2onc(C)c2-c2ccc(C(=O)OC(C)C)o2)c(O)c1	inactive
CON	inconclusive: 28.1 µM [inhibitor, single point]
COc1cc(/C=N/Nc2nc(=O)[nH]nc2C)cc([N+](=O)[O-])c1O	active: 19.9 µM
C[C@H](NC(=O)c1nc[nH]c1C(=O)N[C@@H](Cc1ccccc1)C(=O)OCc1ccccc1)c1ccccc1	inconclusive: 15.8 µM [inhibitor, single point]
Cn1c(=O)[nH]c(=O)c2[nH]c(CN3CCN(C(=O)c4ccco4)CC3)nc21	inconclusive: 15.8 µM [inhibitor, partial curve]
CCOC(=O)c1c(CSc2ccccc2)n(C)c2cc(Br)c(O)c(CN(C)C)c12	inactive

SMILES	Potency
COc1ccc(-c2n[nH]c(=S)n2-c2ccccc2C)cc1OC	inactive
Oc1ccc(NCc2ccccc2OCc2ccccc2)cc1	inconclusive: 17.7 µM [inhibitor, partial curve]
CCOc1cc(C(=O)N/N=C/c2ccsc2)cc(OCC)c1OCC	inactive
O=C(c1ccco1)c1coc2c1cc(O)c1ccccc12	inconclusive: 7.92 µM [inhibitor, partial curve]
CCCCN(C)C(=O)CSc1nc(NCc2ccc(OC)cc2)c2ccccc2n1	inactive
CCN(CC)CCNC(=O)c1cc2c(-c3cccc(OC)c3)nn(C)c2s1	inactive
O=C(NNC(=O)C12CC3CC(CC(C3)C1)C2)c1cccc(O)c1	inactive
N#C/C(=C\c1ccc(O)c(O)c1)S(=O)(=O)c1ccccc1	inconclusive: 1.99 µM [inhibitor, full curve]
Cc1cc(-c2onc(C)c2C(=O)N/N=C/c2ccccc2)no1	inconclusive: 15.8 µM [inhibitor, partial curve]
CCN(CC)C(=O)c1ccc2c(c1)C1C(Cl)C(Sc3ccccc3[N+](=O)[O-])CC1C(C(=O)O)N2 (configuration not stated)	inactive
CC(/C=N/NC(=O)c1nnn(-c2nonc2N)c1C(C)C)=C\c1ccccc1	inactive
CCCn1c(SCC(=O)Nc2ccccc2OC)nnc1-c1ccco1	inactive
CC(=O)c1cccc(NC(=S)N2CCN(S(=O)(=O)c3ccccc3)CC2)c1	inactive
Cc1ccccc1NC(=S)N1CCN(Cc2ccc3c(c2)OCO3)CC1	inactive
Cc1ccc2occ(-c3nn[nH]n3)c(=O)c2c1	inconclusive: 8.89 µM [inhibitor, partial curve]
O=C(CSC(=S)N1CCOCC1)Nc1nc(=O)c2ccccc2s1	inconclusive: 15.8 µM [inhibitor, single point]
COc1ccccc1N1CCN(Cc2ccccc2Cl)CC1	inconclusive: 17.7 µM [inhibitor, single point]
O=C(NCCc1ccccc1)c1ccc2nc(-c3ccco3)c(-c3ccco3)nc2c1	inconclusive: 3.54 µM [inhibitor, full curve]
O=C(N/N=C/c1cc(O)ccc1Br)c1cccnc1	inconclusive: 28.2 µM [activator, single point]
CC(C)(C)c1cc(C(=S)N2CCN(CCO)CC2)cc(C(C)(C)C)c1O	active: 9.98 µM
CCC(C)Sc1nnc(NS(=O)(=O)Cc2ccccc2)s1 (configuration not stated)	inactive
CC(C)OCCCN1C=C2C(=O)C(C)(OC(=O)C3CCCC3)C(=O)C=C2C=C1c1ccsc1 (configuration not stated)	inconclusive: 0.397 µM [inhibitor, full curve]
O=C(Nc1ccccc1N1CCOCC1)c1cc2c(s1)CCCCC2	inactive
O=C(N/N=C/c1cc2ccccc2[nH]1)c1ccccc1Cl	inactive
OCCCCNc1cccc2ccccc12	inconclusive: 6.29 µM [inhibitor, partial curve]
Cn1c(CNc2ccc(O)cc2)nc2ccccc21	inconclusive: 14.1 µM [inhibitor, partial curve]
